Results on 9 compounds are retold here after the supplement of paper PMC4604168 (melanoma cell lines).

Some of the results follow. Many values rest on one well or one pass, so single values are uncertain.

Test systems include MZ2-MEL; MeWo; RPMI7951; RVH-421; SkMel28; SkMel2; SkMel30; SkMel5; UACC257; UACC62.
Common to all, as to assay: cell count relative to DMSO control; melanoma cells; higher = more viable cells
Conditions in all cases: library dose: low library concentration; 72 h
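Note: cell number obtained by counting DAPI-stained nuclei in high-throughput microscope images with image analysis software, screen run in 1,536-well plates.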

Turning to `CC[C@]1(O)C[C@H]2CN(CCc3c([nH]c4ccccc34)[C@@](C(=O)OC)(c3cc4c(cc3OC)N(C=O)[C@H]3[C@@](O)(C(=O)OC)[C@H](OC(C)=O)[C@]5(CC)C=CCN6CC[C@]43[C@@H]65)C2)C1` [vincristine] + O=S(=O)(c1ccccc1)N(CC(F)(F)F)c1ccc(C(O)(C(F)(F)F)C(F)(F)F)cc1 [T0901317] (first compound 0.0001 µM, partner dose 1.4 µM), the cell count was determined as 78.7% in the test on MZ2-MEL; 74.3% in the test with MeWo; 51.2% with RPMI7951; 79.7% with RVH-421; 69% in the test with SkMel28; 97% with SkMel2. Further, the cell count with SkMel30 amounted to 47.2%; in the test with SkMel5, 80.1%; in the test with UACC257, 40.7%; with UACC62, 56.3%.

Regarding `N#CC[C@H](C1CCCC1)n1cc(-c2ncnc3[nH]ccc23)cn1` [ruxolitinib] + COC(=O)c1sccc1S(=O)(=O)Nc1ccc(Nc2ccccc2)cc1OC [GSK0660] (first compound 1 µM, partner dose 1 µM), the cell count with MZ2-MEL was 93%; with MeWo it was 104%; in the test with RPMI7951 it was 93.2%; in the test on RVH-421, 80.6%; in the test on SkMel28, 104%; with SkMel2 it was 105%. Moreover, the cell count in the test on SkMel30 amounted to 97.1%; in the test on SkMel5 it was 106%; in the test with UACC257, 126%; in the test with UACC62, 91.3%.

For `N#CC[C@H](C1CCCC1)n1cc(-c2ncnc3[nH]ccc23)cn1` [ruxolitinib] + Cc1ccc(NC(=O)c2cccc(N(C)C)c2)cc1NC(=O)c1ccc(O)cc1 [ZM336372] (first compound 1 µM, partner dose 2 µM), the cell count was determined as 90.4% in the test on MZ2-MEL; 93.1% in the test with MeWo; 98.2% with RPMI7951; 96.3% in the test with RVH-421; 111% in the test on SkMel28; 119% in the test with SkMel2. For the same compound, the cell count was 103% with SkMel30, 115% with SkMel5, 78.8% in the test with UACC257 and 92.7% in the test with UACC62.

With `Cc1cc(Nc2cc(N3CCN(C)CC3)nc(Sc3ccc(NC(=O)C4CC4)cc3)n2)n[nH]1` [Tozasertib] + CC(C)(C)c1cnc(CSc2cnc(NC(=O)C3CCNCC3)s2)o1 [SNS-032] (first compound 0.006 µM, partner dose 0.01 µM), the cell count is 94.9% in the test with MZ2-MEL; 92% in the test with MeWo; 104% with RPMI7951; 89.8% with RVH-421; 87.9% in the test with SkMel28; 96.2% in the test on SkMel2. For the same compound, the cell count in the test with SkMel30 stood at 92.2%; in the test with SkMel5, 92.9%; in the test on UACC257 it was 80.3%; in the test on UACC62 it was 81.6%.

As for `N#CC[C@H](C1CCCC1)n1cc(-c2ncnc3[nH]ccc23)cn1` [ruxolitinib] + COc1cc2ncnc(Nc3ccc(Oc4ccccc4)cc3)c2cc1OC [SrcI1] (first compound 1 µM, partner dose 2 µM), the cell count with MZ2-MEL was 92%; with MeWo, 95%; in the test with RPMI7951 it was 94.3%; with RVH-421 it was 105%; in the test on SkMel28, 96.3%; in the test with SkMel2 it was 107%. Besides, the cell count came to 86.4% in the test with SkMel30, 124% in the test with SkMel5, 103% in the test with UACC257 and 109% in the test on UACC62.

`Cc1cc(Nc2cc(N3CCN(C)CC3)nc(Sc3ccc(NC(=O)C4CC4)cc3)n2)n[nH]1` [Tozasertib] + COc1cc(Nc2ncc(F)c(Nc3ccc4c(n3)NC(=O)C(C)(C)O4)n2)cc(OC)c1OC [Tamatinib] (first compound 0.006 µM, partner dose 0.4 µM): the cell count stood at 85.8% in the test on MZ2-MEL; 88% with MeWo; 87.5% in the test with RPMI7951; 106% in the test with RVH-421; 84.3% with SkMel28; 97.4% with SkMel2. For the same compound, the cell count in the test with SkMel30 was determined as 64.8%; with SkMel5, 78.6%; in the test with UACC257, 73.3%; in the test with UACC62, 88.6%.

For the compound `Cc1cc(Nc2cc(N3CCN(C)CC3)nc(Sc3ccc(NC(=O)C4CC4)cc3)n2)n[nH]1` [Tozasertib] + CN(NC(=O)CC(=O)NN(C)C(=S)c1ccccc1)C(=S)c1ccccc1 [STA4783] (first compound 0.006 µM, partner dose 0.006 µM), the cell count is 98.3% with MZ2-MEL; 89.1% in the test on MeWo; 92.3% in the test on RPMI7951; 92.4% in the test on RVH-421; 84.8% with SkMel28; 102% in the test with SkMel2. For the same compound, the cell count was found to be 105% with SkMel30, 86.1% with SkMel5, 81.7% in the test on UACC257 and 68.3% in the test with UACC62.

Turning to `CC[C@]1(O)C[C@H]2CN(CCc3c([nH]c4ccccc34)[C@@](C(=O)OC)(c3cc4c(cc3OC)N(C=O)[C@H]3[C@@](O)(C(=O)OC)[C@H](OC(C)=O)[C@]5(CC)C=CCN6CC[C@]43[C@@H]65)C2)C1` [vincristine] + COc1cc2ncnc(Nc3ccc(Oc4ccccc4)cc3)c2cc1OC [SrcI1] (first compound 0.0001 µM, partner dose 2 µM), the cell count in the test on MZ2-MEL came out at 96.4%; in the test with MeWo, 44.5%; in the test with RPMI7951, 48.2%; in the test on RVH-421, 44.4%; in the test on SkMel28, 34.1%; in the test with SkMel2, 98.6%. Moreover, the cell count with SkMel30 is 35%; in the test on SkMel5, 74.8%; in the test with UACC257, 29.3%; with UACC62, 36.2%.

For the compound `Cc1cc(Nc2cc(N3CCN(C)CC3)nc(Sc3ccc(NC(=O)C4CC4)cc3)n2)n[nH]1` [Tozasertib] + O=C(O)c1ccc(-c2c[nH]c3ncc(-c4ccccc4)cc23)cc1C1CCCC1 [GSK650394] (first compound 0.006 µM, partner dose 0.16 µM), the cell count in the test on MZ2-MEL worked out at 102%; with MeWo, 90.2%; with RPMI7951 it was 96.3%; with RVH-421, 89.9%; in the test with SkMel28 it was 94.1%; in the test with SkMel2, 92.1%. Moreover, the cell count with SkMel30 was found to be 113%; in the test on SkMel5, 106%; in the test with UACC257, 100%; in the test on UACC62, 88.1%.
